# Data published in PubChem BioAssay AID488969 (Vanderbilt High Throughput Screening Facility, 2010).
# The full ranking holds about 110,000 compounds; the median of “z-score” is about -0.1, and the highest 2% start at about 2. This is one part of the list. Calls of active or inactive are those of the source.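 The calls were made as follows: active = z-score in the third read window above 3 or below -3; inactive = the rest.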
# Target: Metabotropic glutamate receptor 8 (Rattus norvegicus) (UniProt P70579)
# Assay: mGluR8 Gi/Go-coupled signaling modulation – cell-based, rat, thallium flux, HTS, primary screen (AID 488969)
# Conditions: HEK293 rat mGluR8, GIRK (G protein-gated inwardly rectifying potassium channel) thallium flux, FluoZin2; at 10 µM; stronger effect = higher value; submaximal glutamate (EC20) added with thallium
# UniProt P70579, sequence (P70579 whole entry, looked up): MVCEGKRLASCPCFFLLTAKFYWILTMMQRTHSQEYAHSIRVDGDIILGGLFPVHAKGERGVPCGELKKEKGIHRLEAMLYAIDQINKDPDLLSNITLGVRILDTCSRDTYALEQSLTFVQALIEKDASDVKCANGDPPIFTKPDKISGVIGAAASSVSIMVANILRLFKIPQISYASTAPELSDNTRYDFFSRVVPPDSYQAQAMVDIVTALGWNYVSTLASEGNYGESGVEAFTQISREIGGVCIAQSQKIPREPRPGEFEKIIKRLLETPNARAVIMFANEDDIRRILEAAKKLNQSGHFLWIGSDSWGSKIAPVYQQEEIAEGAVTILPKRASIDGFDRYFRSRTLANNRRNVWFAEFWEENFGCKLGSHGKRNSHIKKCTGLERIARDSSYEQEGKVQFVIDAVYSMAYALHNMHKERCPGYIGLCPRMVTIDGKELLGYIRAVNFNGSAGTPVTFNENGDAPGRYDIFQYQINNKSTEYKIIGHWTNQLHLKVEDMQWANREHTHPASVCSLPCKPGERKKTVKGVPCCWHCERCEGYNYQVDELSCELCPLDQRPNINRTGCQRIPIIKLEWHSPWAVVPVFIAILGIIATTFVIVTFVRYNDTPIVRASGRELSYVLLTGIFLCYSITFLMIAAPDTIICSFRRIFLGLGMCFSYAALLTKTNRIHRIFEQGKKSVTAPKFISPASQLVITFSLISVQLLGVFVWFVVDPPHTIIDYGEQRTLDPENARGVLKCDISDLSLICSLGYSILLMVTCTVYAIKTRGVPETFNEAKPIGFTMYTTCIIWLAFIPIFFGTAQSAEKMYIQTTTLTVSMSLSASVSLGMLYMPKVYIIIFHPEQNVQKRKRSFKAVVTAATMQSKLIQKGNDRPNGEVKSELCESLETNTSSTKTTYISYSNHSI
row,Compound,z-score
1,O=C(O)C1Cc2ccccc2CN1C(=O)c1ccccc1Cl (stereo not given),0.457
2,CN1CCN(c2ccc(C(=O)c3ccc(F)cc3)cc2)CC1,-0.0611
3,CC(C)C(=O)Nc1ccc(NC(=O)c2ccccn2)cn1,0.221
4,C=CCn1c(SCCCCCC)nc(O)cc1=O,-0.819
5,COc1cccc(C(=O)CSc2nc3cccnc3n2C)c1,1.24
6,O=C(O)c1cc(Cl)c(Cl)cc1C(=O)Nc1cccc2ncccc12,0.0614
7,COC(=O)CC1C(=O)NCCN1C(=O)NC1CCCCC1 (stereo not given),-0.062
8,CCOC(=O)c1cccc(NC(=O)CSc2nnc(C3CCCCC3)n2C)c1,active: -3.49
9,COc1ccc(C/C(N)=N/OC(=O)Cc2ccccc2)cc1,-0.0536
10,CCN(CC)C(=O)CSc1nc2ccccc2c(=O)n1OC,-0.225
11,CCOc1ccc(-n2c(SCc3cc(=O)oc4cc(C)c(C(C)C)cc34)nnc2-c2cccnc2)cc1,-0.176
12,COC(=O)C1=NN(N=O)C2(CC(=O)N(c3cc(C)cc(C)c3)C2=O)C1 (stereo not given),-0.194
13,COc1ccc(S(=O)(=O)Cc2ccc(C(=O)N3CCN(c4cccc(C)c4)C(C)C3)o2)cc1 (stereo not given),-0.198
14,Cc1ccc(-n2c(SCC(=O)N3CCOCC3)nnc2-c2cccnc2)cc1C,-1.4
15,Cc1ccc(-c2cc(C(=O)Nc3cnn(C45CC6CC(CC(C6)C4)C5)c3)no2)cc1,-0.401
16,Cc1c(/C=N/NC(=O)CNc2ccccc2)c2ccccn2c1C(=O)c1ccncc1,-0.258
17,COc1cc(NC(=O)Cc2cccs2)cc(OC)c1,-0.0563
18,Fc1c(F)c(F)c(N/N=C/c2c[nH]c3ccccc23)c(F)c1F,0.0396
19,Cc1ccc2c(C(=O)CN3CCCCC3CCO)c(C)[nH]c2c1 (stereo not given),0.306
20,C/C(N)=C(/C#N)C(=O)CSc1nc2ccccc2[nH]1,-0.0988
21,Cc1cccc(NC(=O)COC(=O)Cc2cccc(C(F)(F)F)c2)c1C,-0.291
22,O=C(O)c1cccc2c1C(=O)N(C1CCCCC1)C2,-0.194

row,Compound,z-score
1,CS(=O)(=O)Nc1ccc(C2=NN(C(=O)c3ccco3)C(c3ccccc3)C2)cc1 (stereo not given),-0.461
2,Cc1ccc(NC(=O)C2CCCN2C(=O)Oc2ccccc2)cc1 (stereo not given),0.00428
3,COc1ccccc1Cn1c(=S)[nH]c2cc(C(=O)NCCN3CCOCC3)ccc2c1=O,-0.551
4,O=[N+]([O-])c1ccc(N/N=C/c2c[nH]c3ccccc23)c(S(=O)(=O)Nc2ccc(Cl)cc2)c1,-0.16
5,CCc1nn(C)c(-c2n[nH]c(=S)n2N)c1Cl,-0.146
6,Cc1nc2sc(C(c3cccc(F)c3)N3CCOCC3)c(O)n2n1 (stereo not given),-0.156
7,CCC(c1nnnn1Cc1ccccc1)N(Cc1ccco1)Cc1cc2cc(OC)ccc2[nH]c1=O (stereo not given),-0.0441
8,Cc1c(Cl)cccc1NC(=O)CNC(=O)c1ccccc1F,-0.197
9,CC1CCCC(NC(=O)CC2Nc3ccccc3NC2=O)C1C (stereo not given),0.0968
10,Cc1ccc(-c2nc3ccccc3o2)cc1NC(=S)NC(=O)/C=C/c1ccco1,0.0248
11,C=CCc1cccc2cc(C(=O)N3CCN(C(=O)c4ccco4)CC3)c(=O)oc12,-0.404
12,CCCc1nc2ccccc2c(=O)n1/N=C/c1ccc(O)cc1,1.56
13,CC(C)(C)c1ccccc1OCC(=O)NCCC(=O)O,-0.162
14,O=C(CN1C(=O)c2ccccc2S1(=O)=O)Nc1ccc(S(=O)(=O)N2CCCC2)cc1,-0.409
15,O=C(CCN1C(=O)c2ccccc2S1(=O)=O)NCc1ccco1,0.0458
16,Cc1ccccc1-c1nc(-c2ccc(NC(=O)c3ccc4c(c3)OCO4)cc2)no1,-0.00833
17,CCC(=O)N(CCO)Cc1cc2ccc(C)c(C)c2[nH]c1=O,-0.572
18,N#Cc1ccc(Oc2cccnc2)cc1C#N,0.83
19,COc1ccccc1NS(=O)(=O)c1cccc(C(=O)N/N=C(\C)c2ccc3c(c2)OCCO3)c1,-1.51
20,N#C/C(=C\c1cccs1)C(=O)NCC1CCCO1 (stereo not given),-0.192
21,CCN1C(=O)/C(=C\N2CCN(c3cccc(Cl)c3)CC2)SC1=S,-0.186
22,Brc1ccc(-c2cn3nc4c(nc3n2)CCCC4)cc1,0.46

row,Compound,z-score
1,COc1ccc(COC(=O)C2=C(C)NC(=O)NC2c2ccc(O)c(OC)c2)cc1 (stereo not given),-0.122
2,C/C(CC(=O)Nc1cc(Cl)ccc1Cl)=N\NC(N)=S,-0.27
3,Cn1c(=O)c(S(=O)(=O)C(C)(C)C)c(O)c2ccccc21,-0.724
4,O=C(NCc1ccc(F)cc1)c1ccccc1OCc1ccccc1,-0.0481
5,CCc1ccc(OCC(=O)Nc2ccc3c(c2)COC3=O)cc1,0.881
6,CCOC(=O)c1cc(NC(=O)c2cnccn2)cc(C(=O)OCC)c1,-0.0722
7,Cc1ccc(CNC(=O)C2(NC(=O)Nc3ccc(C)cc3)CCCCC2)cc1,-0.292
8,O=C(c1cccs1)N1CCN(C(=O)C(c2ccccc2)c2ccccc2)CC1,-0.297
9,COc1ccc2c(c1)C(c1ccc(N3CCOCC3)cc1)=NNC(c1cccnc1)=N2,0.478
10,Cc1nn(CC(=O)NCc2ccccc2Cl)c(C)c1[N+](=O)[O-],-0.117
11,COc1ccccc1OCCn1c(=O)sc2ccccc21,-0.0836
12,CCOC(=O)C1CCCN(C(=O)Cn2nc(CC)n3c(cc4sccc43)c2=O)C1 (stereo not given),-0.393
13,Cc1ccc(S(=O)(=O)NC2CCCC2)cc1C,-0.157
14,COc1ccc(C2=Nn3c(nnc3-c3ccccc3OC)SC2)cc1OC,-1.01
15,CCOC(=O)C1CCCN(S(=O)(=O)Cc2ccccc2)C1 (stereo not given),0.343
16,Cc1ccc(C)c(N2CCN(C(=O)c3csc(C)c3C)CC2)c1,0.0161
17,CC(=O)c1cc2c(cc1NC(=O)CN1CCCCCCC1)OCO2,-0.185
18,COc1ccccc1N1CCN(C(=O)CN(Cc2ccc(Cl)cc2)S(C)(=O)=O)CC1,-0.133
19,CC(C)(C)n1nc2c(c1NC(=O)c1cccc(C(F)(F)F)c1)CS(=O)C2 (stereo not given),0.115
20,CC1CCN(CC(=O)NCc2ccccc2)CC1,-0.0448
21,Cc1cccn2cc(CSc3nnc(Nc4ccc(C(C)C)cc4)s3)nc12,-0.709
22,CC(C)Sc1nc2ccccc2n1CC(=O)NCc1ccc2c(c1)OCO2,-0.586

row,Compound,z-score
1,Cc1nn2c(=O)nc3sc4c(c3c2[nH]c1=O)CCCC4,-1.6
2,O=C(CN1C(=O)NC2(CCCc3ccccc32)C1=O)NCc1ccco1 (stereo not given),-0.227
3,O=c1cc(CN2CCN(CCO)CC2)c2cc3c(cc2o1)CCC3,0.804
4,Cc1cc(Br)ccc1NC(=S)Nc1cccc([N+](=O)[O-])c1,0.848
5,O=C(NN1C(=O)c2ccccc2NC1c1ccccn1)c1ccccc1 (stereo not given),-0.346
6,CC(C)(C)OC(=O)NCCCCCc1nnc(SCC(N)=O)o1,1.62
7,Cn1c(C(=O)N2CCCC2)cc2c(=O)n(C)c3ccccc3c21,-0.844
8,O=C1C(O)CC2c3ccccc3CC3(CCCC3)N12 (stereo not given),-0.202
9,COc1ccc(-c2noc(CCC(=O)NCCCN3CCC(C)CC3)n2)cc1,-0.0947
10,Cc1ccc(C)c(CN2C(=O)C3CCCN3c3ccc(S(=O)(=O)N4CCOCC4)cc32)c1 (stereo not given),-0.48
11,O=C(N/N=C/c1ccc([N+](=O)[O-])cc1)c1ccc2nc[nH]c2c1,-0.162
12,COc1ccc(C(=O)OCC2CC(c3ccccc3)N(C)O2)cc1 (stereo not given),0.13
13,Cc1ccc2c(c1)/C(=N/OS(=O)(=O)c1ccccc1)CCS2,-0.0781
14,CC(=O)Oc1ccc(C(=O)[C@H]2[C@H]3C(=O)N(c4ccccc4)C(=O)[C@H]3[C@@H]3C=CC=NN32)cc1,-1.36
15,COc1ccc(/C=N/NC(=O)C(Cc2c[nH]c3ccccc23)NC(=O)OCC(C)C)cc1[N+](=O)[O-] (stereo not given),-0.0825
16,CC(O)[C@H](NC(=O)C1(c2ccccc2)CCN(C(=O)OC(C)(C)C)CC1)C(=O)O (stereo not given in full),-0.163
17,O=c1[nH]c(-c2ccncc2)nc2ccccc12,0.441
18,Cc1cccc(-n2c(C)cc(C(=O)NC3CCCCC3)c2C)c1,-0.484
19,COc1ccccc1N1C(=O)C2CC(C)=C(C)CC2C1=O (stereo not given),-1.37
20,O=C(O)C1CCCN1S(=O)(=O)c1ccccc1 (stereo not given),0.165
21,Cc1cccc(Nc2nc(N)nc(CC(=O)CSc3ccc(Cl)cc3)n2)c1,0.0332
22,CCOc1ccccc1NC(=O)c1cccc2c1C(=O)N(CCOC)C2,-0.0529

row,Compound,z-score
1,COc1cccc(-n2nnc3c(=O)n(Cc4ccccc4Cl)cnc32)c1,0.295
2,CCOC(=O)C(Cc1ccccc1)C(=O)Nc1cccc2ccccc12 (stereo not given),-0.627
3,O=C1NC(c2cccc(Br)c2)=N/C1=C\c1ccco1,-0.0235
4,CCOC(=O)c1cc2c(=O)n3ccccc3nc2n(CC(C)C)c1=NC(=O)c1c(-c2c(F)cccc2Cl)noc1C,-0.0956
5,Clc1ccc(C2=Nn3c(nnc3-c3cccnc3)SC2)s1,-0.878
6,CC(C)C(=O)Nc1nc2cc3c(cc2s1)OCO3,0.0741
7,COc1cccc2sc(NC(=O)c3ccc(Br)s3)nc12,0.601
8,Cc1nn2c(c1-c1ccc(Cl)cc1)N=C(c1ccco1)CC2c1ccccc1 (stereo not given),-0.204
9,CCOC(=O)c1ccccc1OCc1cc(/C=N/n2cnnc2)ccc1OC,1.25
10,Cc1ccccc1-c1nnc2c3ccccc3c(C)nn12,-2.4
11,CSc1ccc(C(=S)N2CCN(C(c3ccccc3)c3ccccc3)CC2)cc1,-0.121
12,CN1C2C=C3C(C#N)=C(N)C(C#N)(C#N)[C@@H](c4ccsc4)[C@@H]3C1CC2 (stereo not given in full),active: 4.01
13,O=C1CC(C(=O)N2CCOCC2)C2(CCCC2)O1 (stereo not given),-0.46
14,CCOC(=O)c1c(C2CC2)csc1NC(=O)COC(=O)c1cnc(Cl)c(Cl)c1,-0.208
15,CNC(=O)CC(C(=O)O)c1ccc(OCC(C)C)cc1 (stereo not given),1.1
16,CCc1ccc(C(=O)c2cncc(Br)c2)cc1,-0.261
17,CC1=C(C#N)C(c2cn(-c3ccccc3)nc2-c2cccs2)C(C#N)=C(C)N1,-0.831
18,Cc1ccc(C(C(=O)NC2CCCC2)N2CCCC(C)C2)cc1 (stereo not given),-1.63
19,COc1cc2c(cc1OC)CN(C(=O)C(C)(C)C)CC2,-0.104
20,Nc1ccc(-n2nnnc2CN2CCOCC2)cc1,-0.215
21,CCCC(=O)NC(NC(=S)Nc1ccc(S(N)(=O)=O)cc1)C(Cl)(Cl)Cl (stereo not given),-0.285
22,CC(C)OC(=O)c1ccc(COC(=O)c2cccc(-c3nnc(-c4ccccc4)o3)c2)cc1,-0.101
